Reference: PubChem BioAssay AID761 (NMMLSC, 2007)
Screen size: about 190,000 compounds; about 400 (0.21%) were called active. Inconclusive results, whose numbers are uncertain, are shown with a selection of clear calls.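 The calls were made as follows: active = percent activity GTP binding at least 20 points away from the 100% baseline, either down as inhibitor or up as activator; inconclusive = compound flagged as likely green fluorescent from well-wide comparison; inactive = the rest.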

What follows are compounds tested against Cell division control protein 42 homolog (Homo sapiens) (UniProt P60953) (assay: wildtype Cdc42 fluorescent GTP binding changes, either direction – biochemical, multiplex bead flow cytometry, Bodipy-GTP, primary screen (AID 761;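 also: median bead fluorescence of bound Bodipy-FL-GTP at 100 nM; 0% = excess unlabeled GTP control and 100% = no compound control; below 100% means less GTP binding so inhibitor and above means activator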)). Conditions: GST-Cdc42 beads, at 10 µM, actives lie on both sides.
Chain of UniProt P60953 (P60953 whole entry, looked up): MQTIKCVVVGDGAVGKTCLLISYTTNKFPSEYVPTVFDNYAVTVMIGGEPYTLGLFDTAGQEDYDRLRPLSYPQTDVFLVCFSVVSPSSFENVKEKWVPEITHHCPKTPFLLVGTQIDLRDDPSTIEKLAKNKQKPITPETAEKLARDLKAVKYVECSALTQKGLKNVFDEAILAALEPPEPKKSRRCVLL
For CCOC(=O)C1CCN(C(=O)c2ccco2)CC1, the percent activity (GTP binding) was inconclusive: 103%.
With COCCNC(=O)c1cc(C(=O)CC(C)C)c[nH]1 the percent activity (GTP binding) was inactive: 98%.
CCOc1[nH]n(-c2ccc(Cl)cc2)c(=O)c1C=Nc1ccc(O)cc1 was tested, and the percent activity (GTP binding) was inconclusive: 105%.
COc1cc(-c2cc(=O)c3ccccc3o2)ccc1O was tested, and the percent activity (GTP binding) was inactive: 93%.
For COc1cccc(CN2CCNC(=O)C2CC(=O)NCCn2cccn2)c1OC (stereo not drawn), the percent activity (GTP binding) was inconclusive: 95%.
COC(=O)C(C)Sc1ccc2nnc(-c3ccc(F)cc3)n2n1 (stereo not drawn) was tested, and the percent activity (GTP binding) was inconclusive: 115%.
With CCOC(=O)C1=C(NC(=O)c2ccc(Br)o2)Nc2ccccc2N=C1 the percent activity (GTP binding) was inconclusive: 105%.
In the case of O=C(CCN1C(=O)c2ccccc2C1=O)Nc1ccc(S(=O)(=O)N2CCOCC2)cc1, the percent activity (GTP binding) is reported as inactive: 101%.
In the case of CC(C)(C)c1ccc(C(=O)CC(Sc2ccc(Cl)cc2)C(=O)O)cc1 (stereo not drawn), the percent activity (GTP binding) is reported as inconclusive: 75%.
CCOc1ccc(-c2cc(C(=O)OC)[nH]n2)cc1 was tested, and the percent activity (GTP binding) was inconclusive: 205%.
For Cc1nnc(-c2ccccc2)[nH]c1=O, the percent activity (GTP binding) was inactive: 99%.
With O=C(CCCO)c1ccc2c(c1)OCCO2 the percent activity (GTP binding) was inconclusive: 89%.
O=C(Nc1ccc2c(c1)nc1n2CCSC1)c1ccco1 was tested, and the percent activity (GTP binding) was inconclusive: 92%.
COc1cc(/C=N/Nc2ccc(S(N)(=O)=O)cc2)cc(OC)c1OC was tested, and the percent activity (GTP binding) was inactive: 89%.
In the case of CCn1c(NCc2cccs2)nc2ccccc21, the percent activity (GTP binding) is reported as inactive: 105%.
For Cn1ncc(N=Cc2c(O)ccc3ccccc23)c1C(=O)Nc1cccc(Cl)c1, the percent activity (GTP binding) was inconclusive: 102%.
For NC(=S)N/N=C/c1ccccc1OCCSc1ccc(Cl)cc1, the percent activity (GTP binding) was inactive: 101%.
Cc1ccc(CNC(=O)CSc2nc3n[nH]c(C)c3c(=N)n2-c2cccc(C)c2)cc1 was tested, and the percent activity (GTP binding) was inconclusive: 90%.
With COc1cc(C(=O)OC2CCN(C)CC2)cc(OC)c1OC the percent activity (GTP binding) was inconclusive: 103%.
Cc1ccccc1NC(=O)C1CC(=O)N(Cc2ccccc2)C1 (stereo not drawn) was tested, and the percent activity (GTP binding) was inactive: 93%.
Cc1ccc2cc(C#N)c(NCCNC(=O)C3CC3)nc2c1C was tested, and the percent activity (GTP binding) was inconclusive: 97%.
For COc1ccc(N2CCC(CNC(=S)Nc3cccc(C)c3)C2)cc1 (stereo not drawn), the percent activity (GTP binding) was inconclusive: 99%.
CC(C)NC(=O)/C=C/C(=O)O was tested, and the percent activity (GTP binding) was inactive: 98%.
CCc1ccc2nc(N)sc2c1 was tested, and the percent activity (GTP binding) was inconclusive: 96%.
O=C(NCCCN1CCOCC1)c1ccccc1 was tested, and the percent activity (GTP binding) was inconclusive: 106%.
With CN1CCc2nc3ccc(Cl)cc3c(-c3ccccc3Cl)c2C1 the percent activity (GTP binding) was active: 79%.
With Cc1cccc(-n2ccnc2SCC(=O)Nc2cc(C)on2)c1 the percent activity (GTP binding) was inconclusive: 105%.
For CC(=O)Nc1nc(C)c(-c2csc(Nc3ccccn3)n2)s1, the percent activity (GTP binding) was inconclusive: 97%.
For CCOC(=O)C1(C)NC(c2ccco2)C2C(=O)N(CC)C(=O)C21 (stereo not drawn), the percent activity (GTP binding) was inactive: 95%.
For O=C(Nc1ccc(N2CCN(C(=O)c3cccs3)CC2)cc1)c1cccnc1, the percent activity (GTP binding) was inactive: 97%.
Cc1ccc(C(=O)N2CCN(c3ncccn3)CC2)o1 was tested, and the percent activity (GTP binding) was inconclusive: 105%.
In the case of CC(=O)OCC1OC(OC(C)=O)C(NC(=O)c2cccnc2)C(OC(C)=O)C1OC(C)=O (stereo not drawn), the percent activity (GTP binding) is reported as inactive: 104%.
In the case of O=C(NC(=S)Nc1ccc(F)c([N+](=O)[O-])c1)c1ccccc1F, the percent activity (GTP binding) is reported as inconclusive: 87%.
With COC(=O)c1sc2ccccc2c1-n1cccc1C(=O)C(=O)Nc1ccccc1 the percent activity (GTP binding) was inconclusive: 95%.
In the case of Cc1ccc(NC(=S)NN2CCN(C)CC2)c(C)c1, the percent activity (GTP binding) is reported as inconclusive: 104%.
COc1ccccc1C(=O)N/C(=C/c1ccc(Br)cc1)C(=O)N1CCCC1 was tested, and the percent activity (GTP binding) was inactive: 100%.
CC(=O)Nc1ccc(S(=O)(=O)n2nc(-c3ccc(C)cc3)nc2N)cc1 was tested, and the percent activity (GTP binding) was inconclusive: 106%.
CCOc1ccc(NC(=O)/C=C/c2ccc(OC)cc2)c([N+](=O)[O-])c1 was tested, and the percent activity (GTP binding) was inconclusive: 100%.
For O=S(=O)(c1ccc(F)cc1)N1CCCC(CO)C1 (stereo not drawn), the percent activity (GTP binding) was inconclusive: 110%.
For Clc1ccc(Sc2ccc(/C=N/n3cnnc3)o2)cc1, the percent activity (GTP binding) was inconclusive: 107%.
Cc1ccc(-n2c(-c3ccco3)n[nH]c2=S)cc1 was tested, and the percent activity (GTP binding) was inconclusive: 80%.
For COc1ccc(-c2csc(NC(=O)Cc3cccc4ccccc34)c2C(=O)O)cc1, the percent activity (GTP binding) was active: 76%.
For CCN(CC)S(=O)(=O)c1cnccc1N1CCN(c2cccc(Cl)c2)CC1, the percent activity (GTP binding) was inactive: 104%.
For Cc1cccc2[nH]c(CN(C)Cc3nc(CC4CC4)no3)nc12, the percent activity (GTP binding) was inactive: 99%.
For COc1ccc(CCNC(=O)C(=O)Nc2nccs2)cc1OC, the percent activity (GTP binding) was inactive: 99%.
With Cc1ccc(S(=O)(=O)N2CCC(NC(=O)c3ccccc3)CC2)cc1 the percent activity (GTP binding) was inactive: 96%.
In the case of Cc1nn(C)cc1CN(C)C(=O)CCc1nnc(CCC2CCCCC2)o1, the percent activity (GTP binding) is reported as inactive: 94%.
O=Cc1ccc(OCC(=O)Nc2ccccc2C(F)(F)F)cc1 was tested, and the percent activity (GTP binding) was inactive: 100%.
For COc1cc(/C=C(/C#N)c2nc3ccccc3[nH]2)ccc1OCc1ccc(C(=O)O)o1, the percent activity (GTP binding) was active: 78%.
With Cc1csc(NC(=O)CSc2ccc3nnc(-c4ccncc4)n3n2)n1 the percent activity (GTP binding) was inconclusive: 82%.
For Cn1c(N)c(C(=O)COC(=O)CC2CC3CCC2C3)c(=O)n(C)c1=O (stereo not drawn), the percent activity (GTP binding) was inconclusive: 96%.
In the case of CCOC(=O)c1nc(Nc2ccc(C(=O)OC)cc2)c2ccccc2n1, the percent activity (GTP binding) is reported as active: 74%.
CCOC(=O)/C(=C/C=C1\Sc2cc(OCC)c(OCC)cc2N1CC)C(C)=O was tested, and the percent activity (GTP binding) was inconclusive: 79%.
With CCOc1ccc(/C(CC)=N/NC(=O)C2(C)CC2(Br)Br)cc1 (stereo not drawn) the percent activity (GTP binding) was inactive: 102%.
For Cc1nnc2n(c1=O)N=C(c1ccc(Cl)cc1)CS2, the percent activity (GTP binding) was inactive: 100%.
In the case of O=C(c1cc(COc2c(F)cccc2F)on1)N1CCc2ccccc2C1, the percent activity (GTP binding) is reported as inconclusive: 90%.
With CN(C)CCCNc1cn[nH]c(=O)c1Cl the percent activity (GTP binding) was inactive: 102%.
In the case of CCOCC(=O)Nc1ccccc1C(=O)O, the percent activity (GTP binding) is reported as inactive: 98%.
For O=C(C#Cc1cccc([N+](=O)[O-])c1)c1ccccc1, the percent activity (GTP binding) was active: 78%.
CCCCc1nc2sc3c(=O)n(N)cnc3c2c2c1CCC2 was tested, and the percent activity (GTP binding) was inactive: 96%.
COc1ccccc1C/C(N)=N/OC(=O)COc1ccc2ccccc2c1 was tested, and the percent activity (GTP binding) was inconclusive: 93%.
In the case of Cc1cc(C)n(-c2nnc(NC34CC5CC(CC(C5)C3)C4)nn2)n1, the percent activity (GTP binding) is reported as inactive: 94%.
In the case of CSc1nnc(-c2cccc(C)c2)n1N, the percent activity (GTP binding) is reported as inconclusive: 107%.
For CCOP(=O)(OCC)C(Nc1ccc(C)cc1)c1ccco1 (stereo not drawn), the percent activity (GTP binding) was inactive: 100%.
For COc1ccc(Oc2ncnc3c2ncn3Cc2ccccc2)cc1, the percent activity (GTP binding) was inconclusive: 92%.
With COCCn1c(SCCN2CCOCC2)nc2c1c(=O)[nH]c(=O)n2C the percent activity (GTP binding) was inconclusive: 104%.
CC(CN1CCOCC1)OC(=O)c1ccc(Br)cc1 (stereo not drawn) was tested, and the percent activity (GTP binding) was inconclusive: 104%.
For CCn1c2ccc(C)cc2c2nc3cc(C(=O)O)ccc3nc21, the percent activity (GTP binding) was inconclusive: 93%.
COc1cc(/C=N/Nc2ncnc3sc4c(c23)CCC4)ccc1O was tested, and the percent activity (GTP binding) was inconclusive: 80%.
For CCc1c(C)sc(NC(=O)c2cnn3cccnc23)c1C#N, the percent activity (GTP binding) was inconclusive: 97%.
COc1ccc(C(=O)Nc2ccc3c(c2)Cc2ccccc2-3)cc1 was tested, and the percent activity (GTP binding) was inconclusive: 104%.
For O=C(Nc1ccccc1N1CCOCC1)c1cccs1, the percent activity (GTP binding) was inconclusive: 103%.
With CC(=O)NC(Cc1cccc(F)c1)C(=O)NC1CCN(c2nnnn2-c2ccccc2)CC1 (stereo not drawn) the percent activity (GTP binding) was inactive: 99%.
In the case of CCOc1cc(C2Nc3ccccc3C(=O)N2c2ccccc2)ccc1O (stereo not drawn), the percent activity (GTP binding) is reported as inconclusive: 110%.
In the case of Cc1n[nH]c(=S)c2nn(-c3ccccc3F)c(C)c12, the percent activity (GTP binding) is reported as inconclusive: 103%.
CCn1cc(C(=O)N2CC(C)CC(C)C2)c(=O)c2cc(S(=O)(=O)N3CCOCC3)ccc21 (stereo not drawn) was tested, and the percent activity (GTP binding) was inconclusive: 97%.
For CCN(CC)c1ccc(/C=C2/SC(=O)N(C(C)C)C2=O)o1, the percent activity (GTP binding) was inconclusive: 108%.
For N#CC1(NC(=O)CN2CCc3ccccc3C2)CCCC1, the percent activity (GTP binding) was inactive: 98%.
In the case of CN(c1ccc(OCC(=O)NCc2cccnc2)cc1)S(=O)(=O)c1ccc(Cl)cc1, the percent activity (GTP binding) is reported as inactive: 98%.
Fc1cccc(CSc2ccc3nnc(-c4cccnc4)n3n2)c1 was tested, and the percent activity (GTP binding) was inconclusive: 83%.
For COc1cc2[nH]c(=O)n(CCC(=O)NCCC(C)C)c(=O)c2cc1OC, the percent activity (GTP binding) was inactive: 103%.
With CCCOC(=O)NC1CCS(=O)(=O)C1 (stereo not drawn) the percent activity (GTP binding) was inconclusive: 33%.
For Cc1cccc2cc(C#N)c(NCCNC(=O)NC3CCCCC3)nc12, the percent activity (GTP binding) was inconclusive: 95%.
In the case of CC(C)=CC(=O)OCC(=O)Nc1cc(C)ccc1C, the percent activity (GTP binding) is reported as inconclusive: 94%.
O=C(N/N=C/c1ccsc1)c1ccc2ccccc2n1 was tested, and the percent activity (GTP binding) was inactive: 94%.
With Cc1ccc(S(=O)(=O)Nc2cccc(-c3ccc4nnc(C)n4n3)c2)s1 the percent activity (GTP binding) was inactive: 87%.
COc1cc(NC(=O)c2cc3ccccc3o2)c(OC)cc1Br was tested, and the percent activity (GTP binding) was inconclusive: 108%.
With Cc1nn(Cc2cccc(C(=O)Nc3ccn(Cc4ccccc4)n3)c2)c(C)c1[N+](=O)[O-] the percent activity (GTP binding) was inconclusive: 95%.
With Cc1cc(C)n(CC(=O)N/N=C/c2cc(Br)cc([N+](=O)[O-])c2O)n1 the percent activity (GTP binding) was inconclusive: 85%.
N#Cc1cc2c(=O)n3ccccc3nc2n(CCCN2CCOCC2)c1=O was tested, and the percent activity (GTP binding) was inconclusive: 103%.
With CCCCN1CN=C(Nc2nc3ccccc3o2)NC1 the percent activity (GTP binding) was inconclusive: 104%.
For Cc1cc(C(=O)OCC(=O)Nc2c(F)cccc2F)c(C)n1-c1ccccc1, the percent activity (GTP binding) was inconclusive: 93%.
For COc1ccc(CC(=O)Nc2ccc(C(=O)Nc3nccs3)cc2)cc1OC, the percent activity (GTP binding) was active: 73%.
In the case of Cc1cccc(NC(=O)NC(C)C(c2ccccc2)N2CCN(C)CC2)c1 (stereo not drawn), the percent activity (GTP binding) is reported as inactive: 103%.
In the case of CC(=O)c1sc(Nc2nc(C)cc(C)n2)nc1C, the percent activity (GTP binding) is reported as inconclusive: 109%.
With COc1cc(N2CCCC2)c(OC)cc1/C=C(/C#N)c1cccc(Br)c1 the percent activity (GTP binding) was inconclusive: 169%.
In the case of N#Cc1sc2nc3c(c(-c4cccnc4)c2c1N)CCC3, the percent activity (GTP binding) is reported as inconclusive: 101%.
For c1nc(NCCN2CCOCC2)c2sc3nc(N4CCOCC4)c4c(c3c2n1)CCC4, the percent activity (GTP binding) was inconclusive: 90%.
